# Measured values: PubChem BioAssay AID894 (National Center for Advancing Translational Sciences (NCATS), 2007)
# Among all 150,000 compounds or so, about 6,500 (4.3%) were called active. The shares of active, inactive and inconclusive entries below differ from those in the screen. The call rests on the fitted dose curve; in most records, active means well fitted inhibition curve with a large enough effect (not every such curve was filed as active); inconclusive means small, poorly fitted or top-dose-only effect, or another doubt; inactive means no such curve, though single readings can be large or run the other way. No potency is given beside an inconclusive call; the fits are too rough.
# Molecular target: 15-hydroxyprostaglandin dehydrogenase [NAD(+)] (Homo sapiens) (UniProt P15428)
# Test: qHTS Assay for Inhibitors of HPGD (15-Hydroxyprostaglandin Dehydrogenase)
# Details: purified HPGD, NADH fluorescence kinetic, PGE2 substrate; activity change, negative = inhibition: hits give low values
# Outline: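 20 nM HPGD preincubated 15 min at room temperature with compound in 50 mM Tris-HCl pH 8, 0.01% Tween 20. Started with 1 mM NAD+ and 30 uM prostaglandin E2; NADH fluorescence (360/450 nm) read 5 times over 30-s intervals, last minus first.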
# On the % scale 0 is the no-effect control and ±100 the full control effect; potency means the concentration at half of the fitted maximal effect; tags describe the fitted curve by direction and shape.
# UniProt P15428, sequence (P15428 whole entry, looked up): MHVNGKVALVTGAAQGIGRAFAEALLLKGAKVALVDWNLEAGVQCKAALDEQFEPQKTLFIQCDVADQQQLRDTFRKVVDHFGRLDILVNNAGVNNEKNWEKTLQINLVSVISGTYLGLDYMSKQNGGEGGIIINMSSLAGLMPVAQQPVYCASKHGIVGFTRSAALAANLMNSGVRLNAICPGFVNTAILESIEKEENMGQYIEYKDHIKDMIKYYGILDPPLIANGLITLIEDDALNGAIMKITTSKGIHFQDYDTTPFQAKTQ
SMILES,Potency,"activity change, negative = inhibition"
CCN(CC)S(=O)(=O)c1cccc(-c2nn(-c3ccccc3)cc2/C=C(\C#N)C(=O)NCc2ccco2)c1,"inconclusive [inhibitor, single point]",
O=C1c2c(O)cc(O)cc2O[C@@]12c1c(cc(O)c3c1O[C@H](c1ccc(O)cc1)[C@@H](O)C3)O[C@@H]2c1ccc(O)cc1,"inconclusive [inhibitor, single point]",
Cn1c(=O)[nH]c(=O)c2c1nc(N1CCCC1)n2CCCSc1nc2ccccc2o1,active: 28.2 µM,
COc1ccc(C(=O)N(Cc2ccccc2)Cc2cc3cc4c(cc3[nH]c2=O)OCCO4)cc1,"inconclusive [inhibitor, partial curve]",
CCOC(=O)c1sc(NC(=O)c2ccccc2F)c(C(N)=O)c1C,"inconclusive [inhibitor, partial curve]",
O=C(NC1CCCc2ccccc21)C1CCN(c2c3c(nc4ncnn24)CCC3)CC1 (stereo unspecified),,inactive: -9.05%
COc1cccc(OC)c1C(=O)NC1C(=O)N2C1SC(C)(C)C2C(=O)O (stereo unspecified),,inactive: -8.04%
COc1ccc(C(C#N)C2(C)OCCO2)cc1OC (stereo unspecified),,inactive: -8.65%
COc1ccc(CC(=O)Nc2oc(-c3ccccc3)c(-c3ccccc3)c2C#N)cc1OC,"inconclusive [inhibitor, single point]",
Cc1ccc(C(=O)N2CCN(C3CCCCC3)CC2)s1,"inconclusive [inhibitor, single point]",
CCc1cc2c(=O)c(-c3nc4ccccc4n3C)c(C)oc2c(CN2CCOCC2)c1O,"inconclusive [inhibitor, partial curve]",
COc1ccccc1OCc1nnc(SCC(=O)NCc2ccco2)n1-c1ccccc1,"inconclusive [inhibitor, partial curve]",
CC(=O)Nc1ccc(NC(C)=O)s1,,inactive: -10.3%
Cc1cc(C)nc(SCc2nnc(SCC#N)n2-c2cccc(Cl)c2)n1,active: 15.8 µM,
CN(C)CC[C@@H](C(=O)C(C)(C)C)c1ccccn1,,inactive: -2.05%
COc1ccc(N2C(=O)CC(S/C(N)=N/N=C/c3ccnc4ccccc34)C2=O)cc1 (stereo unspecified),"inconclusive [inhibitor, partial curve]",
CCOC(=O)c1ccc(Nc2nnc3nc(C)cc(C)n23)cc1,active: 22.4 µM,
COc1cc(NS(C)(=O)=O)ccc1Nc1c2ccccc2nc2ccccc12,"inconclusive [inhibitor, partial curve]",
CS(=O)(=O)Nc1ccc(C2=NN(C(=O)C3CCCCC3)C(c3cccs3)C2)cc1 (stereo unspecified),"inconclusive [inhibitor, partial curve]",
COc1ccc(NC(=S)Nc2cccc([N+](=O)[O-])c2)cc1,,inactive: -7.34%
Cc1c(-n2cc(C(=O)O)c(=O)c3cc(F)c(N4CCCC4)c(F)c32)c(=O)n(-c2ccccc2)n1C,"inconclusive [inhibitor, partial curve]",
C/C(=N\NC(=O)c1ccccc1)c1ccc(C)c([N+](=O)[O-])c1,,inactive: -9.59%
COc1ccc(C(=O)/C=C/c2ccc(N3CCCCC3)c([N+](=O)[O-])c2)cc1,,inactive: -14.8%
CCOc1ccc2[nH]c(=O)c(CN(C(=O)N3CCOCC3)C3CC3)cc2c1,"inconclusive [inhibitor, partial curve]",

SMILES,Potency,"activity change, negative = inhibition"
Clc1ccc(CSCc2ccc(Cl)cc2Cl)c(Cl)c1,,inactive: -9.88%
Cc1ccc(C2CC(C(F)(F)F)n3nc(C(=O)NCc4ccco4)cc3N2)cc1 (stereo unspecified),,inactive: -12.1%
CCOc1ccc(CNC(=O)c2ccc(Sc3ccc(C)cc3)c(NC(C)=O)c2)cc1OC,"inconclusive [inhibitor, single point]",
Cc1cc(NC(=O)c2ccoc2C)no1,"inconclusive [inhibitor, single point]",
Cc1ccccc1NC(=O)c1ccccc1O,"inconclusive [inhibitor, partial curve]",
COc1ccc(S(=O)(=O)NCc2cn3c(C)csc3n2)cc1F,"inconclusive [inhibitor, partial curve]",
COCC(=O)N1CCC2(CC1)CN(c1ccncc1)C2,,inactive: -5.2%
COc1cccc(OC)c1-c1nn2c(-c3ccco3)nnc2s1,active: 15.8 µM,
Cc1sc(NC(=O)C2CCCO2)c(C(N)=O)c1C (stereo unspecified),active: 28.2 µM,
CCN1C(=O)/C(=C\N2CCN(c3ccccc3)CC2)SC1=S,,inactive: -18.6%
COc1ccccc1C(=O)Nc1ccc(Oc2ncnc3sc(-c4ccccc4)cc23)cc1,"inconclusive [inhibitor, single point]",
CC(C)(C)C1=Nn2c(nnc2-c2ccccn2)SC1,"inconclusive [inhibitor, single point]",
Cc1cnc(C(=O)Nc2nnc(SCc3c(Cl)cccc3Cl)s2)cn1,"inconclusive [inhibitor, partial curve]",
Cc1cc(C)cc(-n2nnc(C(=O)NCc3ccccc3)c2N)c1,"inconclusive [inhibitor, partial curve]",
CCOc1ccc(Nc2nc(C)cc(C)c2C#N)cc1,"inconclusive [inhibitor, single point]",
Cc1ccc(-c2nc(-c3nccc4ccccc34)oc2-c2ccccc2)cc1,"inconclusive [inhibitor, partial curve]",
NC(=O)c1c(Nc2nc3c(F)cccc3s2)sc2c1CCCC2,"inconclusive [inhibitor, partial curve]",
CSc1oc(-c2ccc(F)cc2)nc1S(=O)(=O)c1ccccc1,"inconclusive [inhibitor, single point]",
Cc1nn(CC(=O)Nc2ccc(C(=O)N3CCCC3)cc2)c(=O)c2ccccc12,active: 14.1 µM,
N#Cc1nc(-c2ccccc2F)oc1NCCc1ccccc1,"inconclusive [inhibitor, partial curve]",
Cc1c(NC(=S)NC(=O)C(c2ccccc2)c2ccccc2)cccc1C(=O)O,,inactive: -9.65%
COc1ccc(-c2nnc3ccc(SCC(=O)NCc4ccco4)nn23)cc1OC,active: 14.1 µM,
O=c1[nH]c2ccc(N=Cc3c(O)ccc4cc(Br)ccc34)cc2[nH]1,,inactive: -24%
CCCCCn1c(SCCC(C)C)nc2c1c(=O)[nH]c(=O)n2C,active: 20 µM,

SMILES,Potency,"activity change, negative = inhibition"
CCn1c(-c2cc(-c3ccc(OC(C)C)cc3)nc3ccccc23)n[nH]c1=S,"inconclusive [inhibitor, partial curve]",
CC(=O)OCC1OC(Sc2cccc3cccnc23)C(OC(C)=O)C(OC(C)=O)C1OC(C)=O (stereo unspecified),"inconclusive [inhibitor, partial curve]",
O=C(NC(=S)N1CCCc2ccccc21)c1ccc(Cl)cc1,"inconclusive [inhibitor, partial curve]",
CCCCn1nnnc1SCC(=O)NCc1ccccc1,"inconclusive [inhibitor, single point]",
COc1ccc(-c2cc(C(=O)NCCc3ccccc3)no2)cc1OC,"inconclusive [inhibitor, partial curve]",
CCOc1cc(/C=N/NC(=S)Nc2ccccc2C(F)(F)F)ccc1OCC(=O)N1CCOCC1,"inconclusive [inhibitor, partial curve]",
Cc1ccc(S(=O)(=O)Nc2cc(C(=O)N3CCOCC3)ccc2N2CCCCC2)cc1,,inactive: 0.0543%
Cc1nn2c(C(F)(F)F)cc(-c3ccc(Cl)cc3)nc2c1C(=O)N1CCOCC1,"inconclusive [inhibitor, partial curve]",
O=C(Nc1ccn(-c2ccccc2)n1)c1ccc(S(=O)(=O)N2CCCCCC2)cc1,"inconclusive [inhibitor, single point]",
Cc1cc(NCCCN)nc(-c2ccccc2O)n1,"inconclusive [inhibitor, partial curve]",
COc1ccc(CSc2nncn2N)cc1[N+](=O)[O-],,inactive: -15.5%
CN(C)c1ncnc2ccc(-c3ccccc3C#N)cc12,"inconclusive [inhibitor, full curve]",
CC1(O)CC2C(CC1O)C2(C)C (stereo unspecified),,inactive: -8.49%
O=C(CCc1ccccc1)NCCC1=CCCCC1,active: 25.1 µM,
CCOC(=O)c1sc(=S)n2c1[nH]c(=O)c1ccc(C(=O)OC)cc12,active: 8.91 µM,
Cc1ccc(-c2cc(C(=O)NCc3ccccn3)c3ccccc3n2)cc1,"inconclusive [inhibitor, partial curve]",
Cc1onc(-c2c(F)cccc2Cl)c1C(=O)OCC(=O)NC(c1ccccc1)c1ccccc1,,inactive: -14.3%
O=c1[nH]c(NNC(=S)NCc2ccccc2)nc2c1C1(CCCCC1)Cc1ccccc1-2,"inconclusive [inhibitor, partial curve, poor fit]",
CCOC(=O)c1sc2cc([N+](=O)[O-])cc(SCC(=O)OC)c2c1N,"inconclusive [inhibitor, partial curve]",
Cc1cc(=O)oc2cc(OCc3cc4c(cc3Cl)OCO4)ccc12,"inconclusive [inhibitor, partial curve]",
CN1CCN(/N=C/c2ccc(Cl)c(Cl)c2)CC1,,inactive: -13.5%
Fc1ccc(NC(=S)NCc2cccs2)cc1,active: 17.8 µM,
CC(=O)Nc1cccc(NC(=O)c2ccc([N+](=O)[O-])cc2Cl)c1,,inactive: -13.7%
